Values marked as one replicate rest on one cluster of the flow cell; about a third of the high ones do not repeat.
Tested on: ATP
Assay: switch fluorescence ratio, 500 uM ATP over buffer (Cy3 cluster intensity, sum of 5 cycles each) (fold (ratio)); higher = stronger signal-on switching upon ATP binding; sequences stand for … in TCGTCGGCAGCGTCAGATGTGTATAAGAGACAGTTTTTTTTTTTTTTTTTTTTTTTTT…TC
Details: aptamer strand: ATP DNA aptamer (quencher-CACCTGGGGGAGTATTGCGGAGGAAGG + anchor), 100 nM annealed; ATP concentration: 500 uM; one replicate
Outline: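 Cy3-labelled switching-strand clusters on a modified Illumina MiSeq flow-cell were annealed to 100 nM quencher-labelled ATP aptamer and imaged first in selection buffer, then after 15 min with 500 uM ATP at 22 °C. NaOH stripping and re-annealing separated each of five buffer/ATP cycles, and clusters outside 100-1000 RFU were excluded. The fluorescence ratio sums target-cycle Cy3 intensity over buffer-cycle Cy3 intensity per cluster and averages it per switch-domain sequence.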
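Note: ATP exposure 15 min at 22 °C before imaging.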

| Sequence | switch fluorescence ratio |
| --- | --- |
| ATCCGGGCG | 1.03 |
| ACGTTAGAA | 1.07 |
| TTAATCCAAA | 1.01 |
| GTGGTGCTGT | 0.997 |
| CGATCACGTA | 1.08 |
| GCGATGTCGT | 1.04 |
| ATTTTTCGCT | 0.981 |
| GGCTTGTTTT | 0.985 |
| CCAGGTAGTC | 1.48 |
| CCAACAAGA | 1.27 |
| ATGCCGACAG | 0.997 |
| AACATCCTAT | 0.998 |
| ATTAGGTATT | 1.01 |
| AAAGGATGCC | 0.993 |
| TGCGTCCATG | 1.03 |
| ACCAGCTTCG | 1.06 |
| CCTCAATAGA | 1.92 |
| CCATTCGTCT | 1.01 |
| TCGACTATGG | 0.964 |
| TCGCAAACTT | 3.63 |
| TTGCGGATTG | 1.04 |
| TAGATGCGCT | 0.928 |
| GCGGCAACTT | 1.01 |
| GACTCTGGCA | 1.06 |
| GATAGTGATG | 1.02 |
| GGTCGGGCGC | 1.02 |

| Sequence | switch fluorescence ratio |
| --- | --- |
| GTACCCTTTT | 1 |
| TTGTCGGAGA | 1 |
| TTTCGGCGTA | 1.05 |
| CCAATGTACA | 1.03 |
| AGCAGCACTT | 1.09 |
| TATTTCCCTC | 1.03 |
| CCCAGGCGAC | 1.36 |
| TATCAGTCTT | 0.959 |
| TTCGGCGAAT | 0.964 |
| TGAGATTAAG | 0.992 |
| CGAGAATGTC | 0.986 |
| GAGTGTTTGT | 0.949 |
| GGTTCGGCA | 0.977 |
| CCGGTGAGTG | 0.998 |
| AAGGGCCACC | 1.05 |
| CTGGATGCCG | 0.91 |
| AATATAAAAG | 1.02 |
| CATAATGGC | 0.983 |
| TGAGGGTCGT | 0.985 |
| TCTGAACCGC | 1.41 |
| TTCCGTATGT | 1.02 |
| GGTATATAGA | 0.977 |
| GGCAAAGGTG | 1.48 |
| AGACGTTTGT | 1.01 |
| CCCGCGGATG | 1.14 |
| TGTAGCTCAG | 1.16 |

| Sequence | switch fluorescence ratio |
| --- | --- |
| ATAACTCAGC | 0.999 |
| GGAGTTGTCC | 0.963 |
| AAAACAGGCT | 1.02 |
| ATGCAAGAGG | 1.01 |
| TACTGTCTAG | 0.968 |
| CCTGGTACCG | 1.01 |
| ACATGGAATA | 0.983 |
| TCCGCCTTTA | 1.16 |
| GGTTAGCCTT | 1.03 |
| TACGACCGAT | 1.22 |
| GCCAGGAATC | 1.02 |
| GCTTAAGAGC | 0.957 |
| TCTTGAGCCG | 1.08 |
| TATTTACCGG | 0.996 |
| CTGTCTACGG | 1.01 |
| TTGCCCGGGT | 0.98 |
| TCTGTAACTA | 0.993 |
| CAAGGTTAAT | 1.1 |
| GTGTGCGTGG | 0.989 |
| GTGGTATTGG | 0.996 |
| TCGGGGATC | 0.977 |
| TGACATGCAT | 0.983 |
| AAGAAGGT | 1 |
| GCCTAATATA | 0.991 |
| TGGGCTATC | 1.5 |
| TTAGATATAC | 1.36 |

| Sequence | switch fluorescence ratio |
| --- | --- |
| TTGCCCGCTT | 1.06 |
| TGATTACATT | 1.02 |
| TTTAGCTAGA | 1.05 |
| TTCAAAGGAT | 0.996 |
| TGGAATAGTC | 1.05 |
| TTCCCCGTCG | 0.999 |
| ACTGTGTGGG | 0.998 |
| ACATTTTATA | 1.03 |
| GCCAAAAAAT | 0.964 |
| TTTCTACTGC | 1.05 |
| TCGATCAGAC | 1.18 |
| AAAGAAGGT | 1.02 |
| AAGAACAGGA | 1.02 |
| TACGGTAAGG | 1.09 |
| GTGTCCAAAC | 1.01 |
| CGGACCTAAG | 0.969 |
| TAGAAGAACT | 1 |
| ATTGGTTACC | 1.02 |
| GCTAGGTCGG | 0.948 |
| ATGTTACGAT | 0.982 |
| ATATCAGAAT | 1.04 |
| ACCAACTGCG | 1.18 |
| AAATGTTAGA | 0.997 |
| ATCTTTAGAC | 0.988 |
| GCTTCGTGCT | 1.03 |
| CAGTAAGGTG | 1.07 |

| Sequence | switch fluorescence ratio |
| --- | --- |
| GATCTAGATG | 0.995 |
| GGGAACCGA | 0.979 |
| CGTTGACAG | 0.991 |
| TCGCCGTACC | 1.05 |
| TTTTGTAGGA | 1 |
| GACTGCGGCG | 0.976 |
| ATGGAATTAA | 1.03 |
| AGCATTCGGA | 1.05 |
| AACGGTGTAA | 0.981 |
| ATCGGGACTA | 0.985 |
| ATGGCAG | 0.914 |
| TTCTTGGTAG | 0.936 |
| TACCACGCGC | 1.1 |
| GATGCATCGC | 0.99 |
| CCACGTTTTT | 1 |
| GACCGTTACA | 1.33 |
| AGAAGATTCG | 1.01 |
| ACGTGGAATC | 1.07 |
| TTACTAGCAT | 1.29 |
| GAGCACCGGC | 1.03 |
| TTACTGGACT | 1.23 |
| CTCCATTCT | 1.02 |
| CTGTCCAGCG | 1.03 |
| GCTTGACACG | 1.04 |
| GTCATACCTG | 1.01 |
| TCCAGTGGTT | 1.03 |

| Sequence | switch fluorescence ratio |
| --- | --- |
| AGGGCCCAGC | 1 |
| CCTCGGCGGG | 1.7 |
| CGGAGCGCAT | 3.08 |
| TCCTGTCATT | 1.01 |
| CACGCGGTTG | 1.02 |
| CGATGAGTC | 1.01 |
| TCGATTCGTA | 0.994 |
| ATGGTCTCGT | 0.967 |
| GAATTTACC | 1.08 |
| AATGAATAGT | 1.03 |
| ATGACCCCCG | 1.05 |
| ACGGGATTTA | 1.04 |
| TCGTGAGAGC | 0.999 |
| AGTAGCATGG | 1.03 |
| TATTCCTCAT | 1.05 |
| TTGCTATACT | 2.45 |
| TTCTACTGCG | 1 |
| AGATGTCTCG | 0.976 |
| GTCGTTGTAC | 1.01 |
| GACAAGTGTA | 0.958 |
| GATAAGTGAA | 1.01 |
| CTGTTGAAAC | 2.26 |
| GTTTCAATTT | 1.03 |
| ACTCTCGATG | 0.99 |
| CGAAGGTGTT | 1.16 |
| TACTAGTTCC | 1.08 |

| Sequence | switch fluorescence ratio |
| --- | --- |
| TTGTGCCGTC | 0.909 |
| TTGCGGCGTT | 0.989 |
| CTGTCAGGGC | 1.12 |
| GGATTAGGAC | 1.03 |
| AGCTTAGGAT | 1.04 |
| TTTCATCGAT | 1.02 |
| TAGTGACTGT | 1.02 |
| TTGCTGAATG | 1.02 |
| AACGGATA | 1.04 |
| ATTGGCATAC | 2.28 |
| TCTGTAGACT | 1.06 |
| ACCATGTAAT | 1.03 |
| CGGGGATCTT | 0.937 |
| CGTTCGTGG | 1.02 |
| CTGTCTGCAC | 1.79 |
| TGATCTCTGA | 1.08 |
| ACAGCCTGTT | 1.02 |
| TGATTCCTAT | 1 |
| GTGGTTTCTA | 1.01 |
| TGTATATCAT | 0.994 |
| GGGTCATGCA | 1.02 |
| GCCCATCGG | 1.03 |
| GTTGGCTTTT | 0.967 |
| ACCTAGAAAA | 1.1 |
| TTTTCAGCGC | 0.999 |
| CCCACCGG | 1.06 |

| Sequence | switch fluorescence ratio |
| --- | --- |
| TCAACGTTCG | 0.996 |
| ACCGCTGGAT | 1.04 |
| GTTGCAAAAT | 1.02 |
| TTCCTCTTGA | 0.975 |
| TATAGCCACA | 0.999 |
| AATATCTATG | 1.07 |
| GTAAGACAAA | 1 |
| CTGAACTAGC | 1.02 |
| AGGTTATGAC | 1.01 |
| TGGATAGCGT | 0.972 |
| ATGGTGCCAA | 1.04 |
| AACTATTGCA | 0.963 |
| TGATATTAAA | 0.973 |
| GAAGACTGGC | 0.944 |
| AACAAAGAAA | 0.937 |
| AGAAGGATAG | 0.951 |
| GCAGCTTTTC | 1.4 |
| TTTCTCAACG | 1.03 |
| TTCTGAGCGC | 1.1 |
